PubChem BioAssay AID504332 (National Center for Advancing Translational Sciences (NCATS), 2011)
Screen size: about 350,000 compounds; about 31,000 (8.9%) were called active. The inconclusive results got no clear call from the source; some entries with a clear call stand among them for comparison. The call rests on the fitted dose curve; in most records, active means well fitted inhibition curve with a large enough effect; inconclusive means small, poorly fitted or top-dose-only effect; inactive means no such curve, though single readings can be large or run the other way. Potencies beside an inconclusive call are fits to weak or partial responses and may not hold up.

target: Histone-lysine N-methyltransferase EHMT2 (Homo sapiens) (UniProt Q96KQ7); test: qHTS Assay for Inhibitors of Histone Lysine Methyltransferase G9a; conditions: G9a H3K9 monomethylation, AlphaScreen, 2 h; activity, negative = inhibition: at 59 µM (top of the series) unless noted; further: nearly all actives have a fitted effect of over 75% in size
Sequence of UniProt Q96KQ7 (Q96KQ7 whole entry, looked up): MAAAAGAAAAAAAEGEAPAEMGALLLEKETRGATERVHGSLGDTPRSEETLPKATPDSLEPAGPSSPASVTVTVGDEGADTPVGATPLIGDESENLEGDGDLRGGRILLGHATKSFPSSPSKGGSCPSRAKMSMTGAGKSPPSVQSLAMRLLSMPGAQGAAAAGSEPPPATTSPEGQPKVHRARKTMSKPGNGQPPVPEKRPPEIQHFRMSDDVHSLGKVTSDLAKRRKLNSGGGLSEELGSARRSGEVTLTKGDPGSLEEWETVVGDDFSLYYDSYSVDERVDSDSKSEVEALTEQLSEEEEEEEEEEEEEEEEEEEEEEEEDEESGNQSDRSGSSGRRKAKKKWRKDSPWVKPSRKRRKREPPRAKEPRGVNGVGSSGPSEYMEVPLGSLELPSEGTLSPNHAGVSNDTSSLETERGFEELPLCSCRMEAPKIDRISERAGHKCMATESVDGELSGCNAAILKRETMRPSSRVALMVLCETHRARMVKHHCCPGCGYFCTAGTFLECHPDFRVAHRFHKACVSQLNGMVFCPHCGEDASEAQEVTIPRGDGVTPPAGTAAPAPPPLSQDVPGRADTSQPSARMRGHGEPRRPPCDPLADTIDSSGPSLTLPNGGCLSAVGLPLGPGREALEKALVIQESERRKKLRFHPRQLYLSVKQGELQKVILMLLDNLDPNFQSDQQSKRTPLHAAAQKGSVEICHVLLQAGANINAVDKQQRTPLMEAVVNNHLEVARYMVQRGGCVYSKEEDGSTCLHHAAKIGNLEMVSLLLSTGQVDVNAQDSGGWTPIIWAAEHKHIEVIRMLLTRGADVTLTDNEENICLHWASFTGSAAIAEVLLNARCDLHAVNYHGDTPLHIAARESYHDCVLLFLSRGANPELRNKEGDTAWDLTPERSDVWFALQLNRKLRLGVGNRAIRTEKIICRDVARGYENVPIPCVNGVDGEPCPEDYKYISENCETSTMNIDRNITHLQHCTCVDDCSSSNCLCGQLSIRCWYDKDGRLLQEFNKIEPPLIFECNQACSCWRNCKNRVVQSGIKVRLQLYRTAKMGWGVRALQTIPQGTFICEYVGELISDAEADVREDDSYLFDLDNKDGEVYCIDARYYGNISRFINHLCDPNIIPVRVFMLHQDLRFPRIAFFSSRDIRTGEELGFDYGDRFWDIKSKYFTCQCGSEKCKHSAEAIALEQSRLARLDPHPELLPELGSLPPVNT
How it was run: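 G9a (20 nM) preincubated 15 min RT with compounds, then 500 nM biotinylated H3K9 peptide and 20 uM SAM added; 2 h RT reaction. Monomethyl-H3K9 product detected by AlphaScreen with anti-H3K9me1 antibody, streptavidin donor and anti-rabbit IgG acceptor beads.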
On the % scale 0 is the no-effect control and ±100 the full control effect; potency means the concentration at half of the fitted maximal effect; tags describe the fitted curve by direction and shape.

SMILES	Potency	activity, negative = inhibition
Cc1ccc2c(c1)C(C)(c1ccccc1)CC(C)(C)N2C(=O)c1ccc(F)cc1 (stereo not given)	inconclusive: 2.24 µM [inhibitor, full curve, poor fit]	–
COc1ccc(-c2nc(CNC(=O)NC3CCCCC3)c(C)o2)c(OC)c1	–	inactive: -5.06% [at 12.7 µM]
CCOc1ccc(C(C(=O)NCC2CCCO2)N(C(=O)c2snc(C(N)=O)c2N)c2cccc(F)c2)cc1 (stereo not given)	inconclusive: 14.1 µM [inhibitor, partial curve, poor fit]	–
Cc1ccc(C(=O)c2sc(Nc3ccc(F)cc3)nc2N)c(C)c1	inconclusive: 25.1 µM [inhibitor, single point]	–
O=C(NCc1ccco1)c1cccc(NC(=O)c2ccco2)c1	active: 56.2 µM	–
O=C(Nc1cccnc1)c1ccc(N2CCOCC2)c([N+](=O)[O-])c1	–	inactive: 12.2%
C=CCN(C(=O)CCC(=O)Nc1cc(C)on1)C(C(=O)NC1CCCC1)c1ccc(OC)cc1OC (stereo not given)	–	inactive: -10.6% [at 102 µM]
CCOC(=O)c1c(NC(=O)c2ccccc2N(C)S(=O)(=O)c2ccccc2)sc2c1CCCC2	–	inactive: 34.8%
CCN1CCN(c2ccc(NC(=O)c3cc(S(=O)(=O)N4CCCC4)ccc3Cl)cc2)CC1	inconclusive: 8.91 µM [inhibitor, partial curve, poor fit]	–
CCN1CCN(CCNC(=O)CS(=O)(=O)Cc2nc(-c3ccc(C)cc3)oc2C)CC1	inconclusive: 89.1 µM [inhibitor, single point]	–
CCCCCCc1cc2cc(-c3cn4c(n3)sc3cc(OC)ccc34)c(=O)oc2cc1O	–	inactive: -17.4%
CCc1ccc(OC)c(-c2csc(N)n2)c1	inconclusive: 44.7 µM [inhibitor, partial curve]	–
Cc1occc1C(=O)NNC(=O)Cc1ccccc1	active: 0.199 µM	–
COc1ccccc1CNC(=O)CN1C(=O)N(C)C2(CCCCC2)C1=O	–	inactive: 19.6% [at 12.7 µM]
FC(F)Sc1ccc(-n2c(-c3ccc(Cl)cc3)c[n+]3c2CCC3)cc1	inconclusive: 39.8 µM [inhibitor, partial curve]	–
C[N+]1(CCn2ccc3ccccc32)CCCCC1	active: 50.1 µM	–
Nc1c(Cl)cc(C2=NCCn3c2c2ccccc2[n+]3[O-])cc1Cl	–	inconclusive: -83.1% [inhibitor] [at 2.33 µM]
Cc1cc(OCC(=O)Nc2nc3c(s2)CCCC3)cc(C)c1Cl	inconclusive: 22.4 µM [inhibitor, single point]	–
Cc1ccccc1C(=O)n1nc(-c2cccnc2)nc1NCc1ccc(F)cc1	inconclusive: 7.94 µM [inhibitor, partial curve, poor fit]	–
O=C(c1nn(Cc2ccccc2)c(=O)c2ccccc12)N1CCN(C/C=C/c2ccccc2)CC1	–	inconclusive: -60.7% [inhibitor]
Cc1cc(C(=O)CSc2n[nH]c(N)n2)c(C)n1-c1ccc(F)cc1	inconclusive: 39.8 µM [inhibitor, single point]	–
CCCOc1ccc(C(=O)NCCc2ccccc2)cc1	–	inactive: 3.8% [at 102 µM]
Cc1cccc(C)c1N1C(=O)C2ON(c3ccccc3)C(c3ccncc3)C2C1=O (stereo not given)	inconclusive: 10 µM [inhibitor, partial curve, poor fit]	–
O=C(Nc1ccccc1)C1Cc2ccccc2CN1C(=O)c1ccco1 (stereo not given)	inconclusive: 39.8 µM [inhibitor, single point]	–

SMILES	Potency	activity, negative = inhibition
O=C(/C=C/c1cccc([N+](=O)[O-])c1)N1CCN(c2ccc(F)cc2)CC1	inconclusive: 17.8 µM [inhibitor, partial curve]	–
COC(=O)c1ccccc1NC(=O)c1cccc(NC(=O)C(C)C)c1	inconclusive: 89.1 µM [inhibitor, partial curve, poor fit]	–
CC(CCc1ccccc1)NC(=O)COc1ccc(S(=O)(=O)N2CCOCC2)cc1[N+](=O)[O-] (stereo not given)	inconclusive: 39.8 µM [inhibitor, single point]	–
Cc1ccc(NC(=O)c2nc[nH]c2C(=O)N2CCC(C)CC2)cc1	–	inconclusive: -82.1% [inhibitor]
CN(C)C(CNC(=O)C1CCN(C(=O)/C=C/c2ccccc2)CC1)c1ccccc1 (stereo not given)	inconclusive: 44.7 µM [inhibitor, partial curve]	–
NS(=O)(=O)c1ccc(CCNC(=O)C2CCCN2S(=O)(=O)c2cccc3nsnc23)cc1 (stereo not given)	active: 79.4 µM	–
CCN(CC)C(=O)c1sc(NC(=S)N2CCN(C(=O)C3CCCO3)CC2)c(C(=O)OC)c1C (stereo not given)	active: 50.1 µM	–
CN(C)CCCNS(=O)(=O)c1ccc(N2CCN(Cc3ccc4c(c3)OCO4)CC2)c([N+](=O)[O-])c1	active: 10 µM	–
CC1(c2nnc(-c3ccncc3)o2)CC(c2ccc([N+](=O)[O-])cc2)=NO1 (stereo not given)	inconclusive: 2 µM [inhibitor, partial curve, poor fit]	–
CCc1nnc(N/N=C/c2cc(C)c(C)cc2C)n1N	active: 79.4 µM	–
Cc1cc(C(=O)COC(=O)C2=NNC(=O)CC2)c(C)n1-c1cccc(C(F)(F)F)c1	inconclusive: 25.1 µM [inhibitor, single point]	–
COc1ccccc1NC(=O)Cc1ccsc1	–	inactive: 5.36% [at 102 µM]
COc1ccc(Cl)cc1NC(=O)c1sc2nc3c(cc2c1N)CN(C)CC3	inconclusive: 39.8 µM [inhibitor, partial curve, poor fit]	–
Cc1ccc(C)n1-c1ccc(N(C)C)cc1	active: 7.08 µM	–
O=c1c2c(nc3n1CCCCC3)sc1c(O)c(Br)ccc12	active: 1.78 µM	–
O=C(c1cccc(F)c1)N1CCC2(CC1)CCN(c1ccccc1)CC2	–	inactive: -4.3% [at 12.7 µM]
Cn1cc(P(=S)(N2CCOCC2)N2CCOCC2)cc1P(=O)(N1CCOCC1)N1CCOCC1	active: 10 µM	–
COc1cc(/C=C2\CC(C(C)(C)C)C/C(=C\c3cc(OC)c(OC)c(OC)c3)C2=O)cc(OC)c1OC (stereo not given)	–	inactive: -31.4% [at 2.33 µM]
CC1CN(c2ccc(NC(=S)Nc3ccc(N4CC(C)OC(C)C4)cc3)cc2)CC(C)O1 (stereo not given)	active: 44.7 µM	–
CCN(CC(=O)NC(=O)NCc1ccco1)Cc1nc2ccccc2c(=O)[nH]1	–	inconclusive: -84.6% [inhibitor]
CCn1cc(Br)c(C(=O)N2CCN(c3ccccc3)CC2)n1	inconclusive: 39.8 µM [inhibitor, single point]	–
O=S(=O)(c1ccccc1)c1nc(-c2ccccc2Cl)oc1NCCN1CCOCC1	inconclusive: 50.1 µM [inhibitor, partial curve]	–
CC(=S)/C=C1\Sc2ccccc2N1C	inconclusive: 11.2 µM [inhibitor, partial curve, poor fit]	–
CC(=O)NCCC(=O)N(C)CC1CCN(CCc2cccc(C(F)(F)F)c2)CC1	–	inactive: 66.3% [at 102 µM]

SMILES	Potency	activity, negative = inhibition
Cc1nnc(NC(=O)COc2ccccc2)s1	inconclusive: 89.1 µM [inhibitor, single point]	–
CCOc1ccc(-c2c(=O)n(OCc3ccc([N+](=O)[O-])cc3)c3ccccc3[n+]2[O-])cc1	–	inactive: 0.848%
CCOc1ccc(-n2nc3ccc(NC(=O)c4ccc(C)cc4C)cc3n2)cc1	–	inactive: -5.63%
COC(=O)c1ccc(C(=O)OC)nc1	–	inactive: 3.22%
Cc1cc(/C=C(/C#N)c2nc3ccccc3[nH]2)c(C)n1-c1cc(C(=O)O)cc(C(=O)O)c1	active: 12.6 µM	–
O=C(Nc1c(C(=O)N2CCN(c3ccccc3)CC2)oc2ccccc12)c1ccccc1F	inconclusive: 28.2 µM [inhibitor, partial curve, poor fit]	–
Nc1ccc(N=Nc2ccc(N)cc2)cc1	inconclusive: 70.8 µM [inhibitor, single point]	–
CC(=C\c1ccccc1)/C=C1/SC(=S)N(C(C(=O)O)C(C)C)C1=O (stereo not given)	active: 35.5 µM	–
CCOc1ccc(C2C(C#N)=C(N)Oc3nc[nH]c(=O)c32)cc1OC (stereo not given)	inconclusive: 56.2 µM [inhibitor, partial curve]	–
O=C(CO/N=C/c1cccc([N+](=O)[O-])c1)NC1CCCCCC1	–	inactive: -25.8% [at 102 µM]
COc1ccc(NS(=O)(=O)c2ccc(C)c(NC(=O)c3ccc(C)c(S(=O)(=O)N4CCOCC4)c3)c2)cc1	–	inactive: -7.08%
CC(C)=C1SC(N2CCN(Cc3ccccc3)CC2)=NC1=O	inconclusive: 89.1 µM [inhibitor, partial curve, poor fit]	–
CCOC(=O)c1cccc(NC(=O)CC2C(=O)N(c3ccc(F)cc3)C(=O)N2Cc2cccc(OC)c2)c1 (stereo not given)	inconclusive: 3.55 µM [inhibitor, partial curve, poor fit]	–
COc1ccc2ccccc2c1CNCc1ccc(C)cc1	active: 50.1 µM	–
COc1ccc(OCC(=O)Nc2ccc(N3CCC(C)CC3)cc2)cc1	inconclusive: 89.1 µM [inhibitor, partial curve, poor fit]	–
Cc1[nH]c2ccccc2c1/C=N/Nc1ccccc1[N+](=O)[O-]	active: 7.94 µM	–
CCN1CCOC(=O)C1CC(=O)Nc1cc(Cl)ccc1C (stereo not given)	active: 0.708 µM	–
COc1cc(N=c2c([N+](=O)[O-])nn(-c3ccc4c(c3)OCCO4)n2O)cc(OC)c1	inconclusive: 35.5 µM [inhibitor, single point]	–
O=C(COC(=O)c1ccc([N+](=O)[O-])s1)NCc1ccccc1	inconclusive: 89.1 µM [inhibitor, single point]	–
Cc1cccc(N2CCN(c3ncnc4c3cnn4-c3ccc(Cl)cc3)CC2C)c1 (stereo not given)	–	inactive: 2.9%
O=C1/C(=C\c2ccc3c(c2)OCO3)CCC/C1=C/c1ccc2c(c1)OCO2	active: 14.1 µM	–
Cc1c(C(=O)OCC(=O)Nc2ccc(N3CCOCC3)cc2)oc2ccccc12	–	inactive: 16.1% [at 0.501 µM]
